From PMC10318468
Results are given in words; binding and its absence hold for the method and conditions named. Binding seen in cells or lysates may run through a third protein. Some results given as binding are weak or reduced against the parent protein; the word gives no strength. Sequences can lack the tags named with a protein.

Protein sequences, listed by entry. Tags and fused reporters are not part of them. Lines headed by an entry give the natural chain unless they say otherwise; changes in a name come on top. Residues count along the entry.
UniProt Q9Y3Z3: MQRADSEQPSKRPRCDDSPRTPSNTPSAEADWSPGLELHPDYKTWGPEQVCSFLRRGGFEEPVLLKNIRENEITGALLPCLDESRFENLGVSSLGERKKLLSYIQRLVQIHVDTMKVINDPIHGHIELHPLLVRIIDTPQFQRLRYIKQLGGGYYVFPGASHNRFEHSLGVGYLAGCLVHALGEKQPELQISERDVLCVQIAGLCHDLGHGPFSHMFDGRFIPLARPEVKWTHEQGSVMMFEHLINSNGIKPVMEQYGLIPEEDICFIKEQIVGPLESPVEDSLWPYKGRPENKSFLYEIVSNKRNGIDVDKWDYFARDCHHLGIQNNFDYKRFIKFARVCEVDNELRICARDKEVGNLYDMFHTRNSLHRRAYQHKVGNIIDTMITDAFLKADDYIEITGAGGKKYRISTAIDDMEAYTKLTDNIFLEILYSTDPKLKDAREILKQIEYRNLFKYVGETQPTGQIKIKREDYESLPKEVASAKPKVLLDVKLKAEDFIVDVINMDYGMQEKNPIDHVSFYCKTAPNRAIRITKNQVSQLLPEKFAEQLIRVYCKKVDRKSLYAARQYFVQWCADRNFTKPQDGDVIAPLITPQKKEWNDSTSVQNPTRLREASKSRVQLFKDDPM
HA-SAMHD1 HD domain (M3): residues 164-316 of Q9Y3Z3

B1: FLAG-tagged IKKβ wildtype (protein, UniProt O14920-1 1-756)
chain: MSWSPSLTTQTCGAWEMKERLGTGGFGNVIRWHNQETGEQIAIKQCRQELSPRNRERWCLEIQIMRRLTHPNVVAARDVPEGMQNLAPNDLPLLAMEYCQGGDLRKYLNQFENCCGLREGAILTLLSDIASALRYLHENRIIHRDLKPENIVLQQGEQRLIHKIIDLGYAKELDQGSLCTSFVGTLQYLAPELLEQQKYTVTVDYWSFGTLAFECITGFRPFLPNWQPVQWHSKVRQKSEVDIVVSEDLNGTVKFSSSLPYPNNLNSVLAERLEKWLQLMLMWHPRQRGTDPTYGPNGCFKALDDILNLKLVHILNMVTGTIHTYPVTEDESLQSLKARIQQDTGIPEEDQELLQEAGLALIPDKPATQCISDGKLNEGHTLDMDLVFLFDNSKITYETQISPRPQPESVSCILQEPKRNLAFFQLRKVWGQVWHSIQTLKEDCNRLQQGQRAAMMNLLRNNSCLSKMKNSMASMSQQLKAKLDFFKTSIQIDLEKYSEQTEFGITSDKLLLAWREMEQAVELCGRENEVKLLVERMMALQTDIVDLQRSPMGRKQGGTLDDLEEQARELYRRLREKPRDQRTEGDSQEMVRLLLQAIQSFEKKVRVIYTQLSKTVVCKQKALELLPKVEEVVSLMNEDEKTVVRLQEKRQKELWNLLKIACSKVRGPVSGSPDSMNASRLSQPGQLMSQPSTASNSLPEPAKKSEELVAEAHNLCTLLENAIQDTVREQDQSFTALDWSWLQTEEEEHSCLEQAS
B2: FLAG-IKKα truncated mutant M1 (aa 1-310) (domain or fragment, UniProt O15111 1-310)
chain: MERPPGLRPGAGGPWEMRERLGTGGFGNVCLYQHRELDLKIAIKSCRLELSTKNRERWCHEIQIMKKLNHANVVKACDVPEELNILIHDVPLLAMEYCSGGDLRKLLNKPENCCGLKESQILSLLSDIGSGIRYLHENKIIHRDLKPENIVLQDVGGKIIHKIIDLGYAKDVDQGSLCTSFVGTLQYLAPELFENKPYTATVDYWSFGTMVFECIAGYRPFLHHLQPFTWHEKIKKKDPKCIFACEEMSGEVRFSSHLPQPNSLCSLVVEPMENWLQLMLNWDPQQRGGPVDLTLKQPRCFVLMDHILNL
B3: FLAG-IKKα truncated mutant M2 (aa 1-387) (domain or fragment, UniProt O15111 1-387)
chain: MERPPGLRPGAGGPWEMRERLGTGGFGNVCLYQHRELDLKIAIKSCRLELSTKNRERWCHEIQIMKKLNHANVVKACDVPEELNILIHDVPLLAMEYCSGGDLRKLLNKPENCCGLKESQILSLLSDIGSGIRYLHENKIIHRDLKPENIVLQDVGGKIIHKIIDLGYAKDVDQGSLCTSFVGTLQYLAPELFENKPYTATVDYWSFGTMVFECIAGYRPFLHHLQPFTWHEKIKKKDPKCIFACEEMSGEVRFSSHLPQPNSLCSLVVEPMENWLQLMLNWDPQQRGGPVDLTLKQPRCFVLMDHILNLKIVHILNMTSAKIISFLLPPDESLHSLQSRIERETGINTGSQELLSETGISLDPRKPASQCVLDGVRGCDSYMVYLF
B4: FLAG-IKKα truncated mutant M3 (aa 1-664) (domain or fragment, UniProt O15111 1-664)
chain: MERPPGLRPGAGGPWEMRERLGTGGFGNVCLYQHRELDLKIAIKSCRLELSTKNRERWCHEIQIMKKLNHANVVKACDVPEELNILIHDVPLLAMEYCSGGDLRKLLNKPENCCGLKESQILSLLSDIGSGIRYLHENKIIHRDLKPENIVLQDVGGKIIHKIIDLGYAKDVDQGSLCTSFVGTLQYLAPELFENKPYTATVDYWSFGTMVFECIAGYRPFLHHLQPFTWHEKIKKKDPKCIFACEEMSGEVRFSSHLPQPNSLCSLVVEPMENWLQLMLNWDPQQRGGPVDLTLKQPRCFVLMDHILNLKIVHILNMTSAKIISFLLPPDESLHSLQSRIERETGINTGSQELLSETGISLDPRKPASQCVLDGVRGCDSYMVYLFDKSKTVYEGPFASRSLSDCVNYIVQDSKIQLPIIQLRKVWAEAVHYVSGLKEDYSRLFQGQRAAMLSLLRYNANLTKMKNTLISASQQLKAKLEFFHKSIQLDLERYSEQMTYGISSEKMLKAWKEMEEKAIHYAEVGVIGYLEDQIMSLHAEIMELQKSPYGRRQGDLMESLEQRAIDLYKQLKHRPSDHSYSDSTEMVKIIVHTVQSQDRVLKELFGHLSKLLGCKQKIIDLLPKVEVALSNIKEADNTVMFMQGKRQKEIWHLLKIACTQSSAR
B5: FLAG-IKKβ truncated mutant M1 (aa 1-309) (domain or fragment, UniProt O14920-1 1-309)
chain: MSWSPSLTTQTCGAWEMKERLGTGGFGNVIRWHNQETGEQIAIKQCRQELSPRNRERWCLEIQIMRRLTHPNVVAARDVPEGMQNLAPNDLPLLAMEYCQGGDLRKYLNQFENCCGLREGAILTLLSDIASALRYLHENRIIHRDLKPENIVLQQGEQRLIHKIIDLGYAKELDQGSLCTSFVGTLQYLAPELLEQQKYTVTVDYWSFGTLAFECITGFRPFLPNWQPVQWHSKVRQKSEVDIVVSEDLNGTVKFSSSLPYPNNLNSVLAERLEKWLQLMLMWHPRQRGTDPTYGPNGCFKALDDILNL
B6: FLAG-IKKβ truncated mutant M2 (aa 1-390) (domain or fragment, UniProt O14920-1 1-390)
chain: MSWSPSLTTQTCGAWEMKERLGTGGFGNVIRWHNQETGEQIAIKQCRQELSPRNRERWCLEIQIMRRLTHPNVVAARDVPEGMQNLAPNDLPLLAMEYCQGGDLRKYLNQFENCCGLREGAILTLLSDIASALRYLHENRIIHRDLKPENIVLQQGEQRLIHKIIDLGYAKELDQGSLCTSFVGTLQYLAPELLEQQKYTVTVDYWSFGTLAFECITGFRPFLPNWQPVQWHSKVRQKSEVDIVVSEDLNGTVKFSSSLPYPNNLNSVLAERLEKWLQLMLMWHPRQRGTDPTYGPNGCFKALDDILNLKLVHILNMVTGTIHTYPVTEDESLQSLKARIQQDTGIPEEDQELLQEAGLALIPDKPATQCISDGKLNEGHTLDMDLVFLF
B7: FLAG-IKKβ truncated mutant M3 (aa 1-666) (domain or fragment, UniProt O14920-1 1-666)
chain: MSWSPSLTTQTCGAWEMKERLGTGGFGNVIRWHNQETGEQIAIKQCRQELSPRNRERWCLEIQIMRRLTHPNVVAARDVPEGMQNLAPNDLPLLAMEYCQGGDLRKYLNQFENCCGLREGAILTLLSDIASALRYLHENRIIHRDLKPENIVLQQGEQRLIHKIIDLGYAKELDQGSLCTSFVGTLQYLAPELLEQQKYTVTVDYWSFGTLAFECITGFRPFLPNWQPVQWHSKVRQKSEVDIVVSEDLNGTVKFSSSLPYPNNLNSVLAERLEKWLQLMLMWHPRQRGTDPTYGPNGCFKALDDILNLKLVHILNMVTGTIHTYPVTEDESLQSLKARIQQDTGIPEEDQELLQEAGLALIPDKPATQCISDGKLNEGHTLDMDLVFLFDNSKITYETQISPRPQPESVSCILQEPKRNLAFFQLRKVWGQVWHSIQTLKEDCNRLQQGQRAAMMNLLRNNSCLSKMKNSMASMSQQLKAKLDFFKTSIQIDLEKYSEQTEFGITSDKLLLAWREMEQAVELCGRENEVKLLVERMMALQTDIVDLQRSPMGRKQGGTLDDLEEQARELYRRLREKPRDQRTEGDSQEMVRLLLQAIQSFEKKVRVIYTQLSKTVVCKQKALELLPKVEEVVSLMNEDEKTVVRLQEKRQKELWNLLKIACSKVR
B8: FLAG-IKKβ truncated mutant M4 (aa 310-756) (domain or fragment, UniProt O14920-1 310-756)
chain: KLVHILNMVTGTIHTYPVTEDESLQSLKARIQQDTGIPEEDQELLQEAGLALIPDKPATQCISDGKLNEGHTLDMDLVFLFDNSKITYETQISPRPQPESVSCILQEPKRNLAFFQLRKVWGQVWHSIQTLKEDCNRLQQGQRAAMMNLLRNNSCLSKMKNSMASMSQQLKAKLDFFKTSIQIDLEKYSEQTEFGITSDKLLLAWREMEQAVELCGRENEVKLLVERMMALQTDIVDLQRSPMGRKQGGTLDDLEEQARELYRRLREKPRDQRTEGDSQEMVRLLLQAIQSFEKKVRVIYTQLSKTVVCKQKALELLPKVEEVVSLMNEDEKTVVRLQEKRQKELWNLLKIACSKVRGPVSGSPDSMNASRLSQPGQLMSQPSTASNSLPEPAKKSEELVAEAHNLCTLLENAIQDTVREQDQSFTALDWSWLQTEEEEHSCLEQAS
B9: FLAG-IKKα truncated mutant M4 (aa 311-745) (domain or fragment, UniProt O15111 311-745)
chain: KIVHILNMTSAKIISFLLPPDESLHSLQSRIERETGINTGSQELLSETGISLDPRKPASQCVLDGVRGCDSYMVYLFDKSKTVYEGPFASRSLSDCVNYIVQDSKIQLPIIQLRKVWAEAVHYVSGLKEDYSRLFQGQRAAMLSLLRYNANLTKMKNTLISASQQLKAKLEFFHKSIQLDLERYSEQMTYGISSEKMLKAWKEMEEKAIHYAEVGVIGYLEDQIMSLHAEIMELQKSPYGRRQGDLMESLEQRAIDLYKQLKHRPSDHSYSDSTEMVKIIVHTVQSQDRVLKELFGHLSKLLGCKQKIIDLLPKVEVALSNIKEADNTVMFMQGKRQKEIWHLLKIACTQSSARSLVGSSLEGAVTPQTSAWLPPTSAEHDHSLSCVVTPQDGETSAQMIEENLNCLGHLSTIIHEANEEQGNSMMNLDWSWLTE
B10: FLAG-IKKα truncated mutant M5 (aa 423-745) (domain or fragment, UniProt O15111 423-745)
chain: LRKVWAEAVHYVSGLKEDYSRLFQGQRAAMLSLLRYNANLTKMKNTLISASQQLKAKLEFFHKSIQLDLERYSEQMTYGISSEKMLKAWKEMEEKAIHYAEVGVIGYLEDQIMSLHAEIMELQKSPYGRRQGDLMESLEQRAIDLYKQLKHRPSDHSYSDSTEMVKIIVHTVQSQDRVLKELFGHLSKLLGCKQKIIDLLPKVEVALSNIKEADNTVMFMQGKRQKEIWHLLKIACTQSSARSLVGSSLEGAVTPQTSAWLPPTSAEHDHSLSCVVTPQDGETSAQMIEENLNCLGHLSTIIHEANEEQGNSMMNLDWSWLTE
B11: p-IKKβ (active), phosphorylated IKKβ in cells transfected with FLAG-IKKβ (protein, UniProt O14920-1 1-756)
chain: MSWSPSLTTQTCGAWEMKERLGTGGFGNVIRWHNQETGEQIAIKQCRQELSPRNRERWCLEIQIMRRLTHPNVVAARDVPEGMQNLAPNDLPLLAMEYCQGGDLRKYLNQFENCCGLREGAILTLLSDIASALRYLHENRIIHRDLKPENIVLQQGEQRLIHKIIDLGYAKELDQGSLCTSFVGTLQYLAPELLEQQKYTVTVDYWSFGTLAFECITGFRPFLPNWQPVQWHSKVRQKSEVDIVVSEDLNGTVKFSSSLPYPNNLNSVLAERLEKWLQLMLMWHPRQRGTDPTYGPNGCFKALDDILNLKLVHILNMVTGTIHTYPVTEDESLQSLKARIQQDTGIPEEDQELLQEAGLALIPDKPATQCISDGKLNEGHTLDMDLVFLFDNSKITYETQISPRPQPESVSCILQEPKRNLAFFQLRKVWGQVWHSIQTLKEDCNRLQQGQRAAMMNLLRNNSCLSKMKNSMASMSQQLKAKLDFFKTSIQIDLEKYSEQTEFGITSDKLLLAWREMEQAVELCGRENEVKLLVERMMALQTDIVDLQRSPMGRKQGGTLDDLEEQARELYRRLREKPRDQRTEGDSQEMVRLLLQAIQSFEKKVRVIYTQLSKTVVCKQKALELLPKVEEVVSLMNEDEKTVVRLQEKRQKELWNLLKIACSKVRGPVSGSPDSMNASRLSQPGQLMSQPSTASNSLPEPAKKSEELVAEAHNLCTLLENAIQDTVREQDQSFTALDWSWLQTEEEEHSCLEQAS
modifications: phosphorylated, detected with the Phospho-IKKα/β (Ser176/180) antibody

These binders were tested against HA-tagged SAMHD1 wildtype (UniProt Q9Y3Z3) (assay: co-IP; HEK293T cotransfected for 48 h with HA-SAMHD1 (WT or HD domain M3) and FLAG-IKK (WT or truncated); HA antibody and Dynabeads protein G, IgG as negative control; washed with 50 mM Tris-HCl pH 7.4, 150 mM NaCl, 1% NP-40, 0.25% sodium deoxycholate; Western blot).
With B1 the binding was “binds”. In the case of B2, the binding is reported as “binds”. B3 was tested, and the binding was “binds”. B4 was tested, and the binding was “binds”. In the case of B5, the binding is reported as “binds weakly”. B6 was tested, and the binding was “binds”. In the case of B7, the binding is reported as “binds”. B8 was tested, and the binding was “binds”. For B9, the binding was “no binding”. With B10 the binding was “no binding”.

What follows are binders tested against HA-SAMHD1 HD domain (M3) (UniProt Q9Y3Z3) in the same assay as above.
With B1 the binding was “binds”. For B11, the binding was “binds”.
